# Measured values taken from the RNAGym collection of RNA variant scans (doi:10.7554/elife.90254).
# Read counts are not given, so values of variants with three or more changes are uncertain.
# B1: LINE1-mini (parent)
# chain: GGCAGAGCUCAACACAGCGUGGCAAAGUGGCUGUGGCUAGACUGCC
# Variants of: B1
# Assay: self-cleavage, relative activity (ratio to wild type); higher = more cleavage; in vitro, sequencing; the parent is a self-cleaving ribozyme
row,Variant,self-cleavage
1,GGCAGAGCUUAACACAGCGUGUCAAAGUGGCUGUGGCUGGACUGCC,0.03
2,GGAAGAGCUCAACAGAGCGUGGCAAAGUGACUGUGGCUAGACAGCC,0.03
3,GGCAGAGCUCUACAAAGCGUGGCAAAGUGGCUCUGGCUCGACUGCC,0
4,GGCAGAGCUCAACACAGCGUCGCAAAGAUGCUGUGGCUAGACUGCC,0.1
5,AGCAGAGCUCAAUACAGCGUGGCAGAGUGGCUGUAGCUAGCGUGCC,0.04
6,GGCAGAGCUUAACACACCAUGGCAAAGUGGCUGUGGCUUGACUGCC,0.86
7,GGCAGCGCUCAACACUGCGUGGCAAAGGGGCUGUGGCUAGACUGCC,0.12
8,GGCAGAGCUCAAUACAGCGUGGCAAAGUGGCUGUGACUAGACUACC,0.09
9,GGCAUAGCUCAACACAGCGGGGCAAAGUGGCUGUCGCUAGACAGCC,0.01
10,GGCAGAGCUCAACACAGCGUGGUAAAGUGUCUGUGGCCAGACUGCC,0.1
11,GGCAGAGCUCUACACAGCGUGGCAAAGUGGCUGUGGCUAAUCUGCC,0.02
12,GGCAGAGGUCAACAAAGCGUGGCAAAGUGACUGUUGCUAGACUGCC,0.04
13,GGCAGAGCUCAACACAGCGUGGCAAGGUGGCUGUGGCUGAACUGCC,0.02
14,GGCAGACCAGAACGCAGCCUGGCAAAGUGGCUGUGGCUAGACUGCU,0.01
15,GGCAAAGCUCAACACAGCGUGGCAAAGUGGCUAUGGCUAGACUACC,0.02
16,GGCAGAGCUCAACAGAGCGUUGCAAAGUGGCUGUGGCUAGACUGUC,0.02
17,GGCAGAACUCAACACAGCGCGGCAAAGUGGUUGUGGCUAGACUGCC,0.02
18,GGCAGAGCUCAACACAGCGUGGCAAAGUGGCUGUGGCUCGAUUGUC,0.05
19,GGCAGUGCUCAACACAGCGUGGCAAAGCGGCUGUGGCUAGACUGCU,0.86

row,Variant,self-cleavage
1,GGCAGAGCUCAACACAGCGUGCCAAAGUGGCUGUGGAUAGACUGCA,0.07
2,GGCACAGGUCAACACAGCGUGGUAACCUGGCUGUGGCGAGACUGCC,0.03
3,GGCAGGGAUCAACACAGCGUGGCAAAGUGGCUGGGGCUAGACUGCC,0.56
4,GGCAGAGCUCAACACAGCGUGGAAAAAUGGCUGUGGCUAGACUCCC,0.57
5,GGCAGAGCUCAACCUAGCGAGGUAAAGUGGCUGUGGCUAGACUGCC,0.14
6,GGCAAAGCUCAACACAGCGUGGCAAAGUGGCUGUGGCAACACUGAC,0.02
7,GGCAGAGCCCAUCACAGCGUGGCAAAAUGUCUGUGGCUAGACUGCC,0.02
8,GACGGAGCUCAACACAGAGUGGCAAAGUGGCUGUGGCUAGACUGCC,0.52
9,GGCUGAGCUCACCACAGCGUGGCAAAGUUCCUGUGGCUAGACUGCC,0.05
10,GGCCGAGCUCAACUCAGCGUGGCAAAGGGGCUGUGGCUUGACUGCC,0.03
11,GGCAGAGCUCAACACAGCGUGACAAAGUUGAAGUGGCUAGACUGCC,0.05
12,GGCAGAGCUAAACACAGCGUGGCAAAGUUGCUGUGGCUAGACUGCU,0.07
13,GGUAGAGCUCAAUACAUCGUGGCUAAGUGGCUGUGGGUAGACUGCC,0.05
14,GGCAGAGCUCAACGCAGCAUGGUAAAGUGGCUGUGGCUAGACUGCC,0.28
15,GGUAGAUCUCAACACACCGUGGCAAAGUGGCUGUGGCUAGACUGCC,0.11
16,GGCAGAGCUCGACACAGCGUUGCAAAGUGGCUGUGCCUAAACUGCC,0.01
17,UGCAGACCUCAACACAGCAUGUCAAAGUGGGUGUGGCUAGACUACC,0.05
18,GGCAGAGCUCUAGACAGCGUGGCAAGUUGGCUGUGGCCAGACUGCC,0.02
19,GGCAGGUCUCAUCACAGCAUGGCAAGGUGGCCGUUGCUAGACUUCC,0.08

row,Variant,self-cleavage
1,GGCAGAGCUCAACACAACGUGGGAAAGUGGCUGUGGCUAGAUUGCC,0.04
2,GGCAGAGCACAACACAGCGUGGAAGAGUGGCUGUGGCUAGACUGCC,0.27
3,GGCAGAGCCCAACACAGCGUAGCAAAGUGGAUGUGGCUAACUUCCC,0.01
4,GGCAGAUCUCAACACAGCGUGACAAAGUGGUUGUGGCUGGACUGCC,0.02
5,GGCAGAGCUCAACACAGCGUGGCAAAGUCCCGGUGGCUACACUGCC,0.01
6,GGGAGAACUCAACACAGCAUGGCAAAGUUGCUGUGGCUAGACUGCC,1.35
7,GGCAGAGCUCAACAAAGCGUGGCGAAGUUGCUGGGGCUAGACUGCC,0.02
8,GUCAGAGCGCAACACAGCGUGGCAAAGUGGCAGUGGCUAGACUGCC,0
9,GGCAGAGCGCAACACAGCGGGGCAAAGUGGCUGUGGUUAGACUGUC,0.19
10,GGCAGAGCUCAAGACAGCGAGGCAAAGUGACUGUGGCUAGCAUGCC,0.03
11,GUCAGAGCUCAACACAGCGCGGCAAAGUGGCUGCGGCUAAACUGCC,0.04
12,GGCAGAGCUCAAAACAGCUUGCCACAGUGGCUGUGGCAAGACUGCC,0.01
13,UGCAGAGCUCAAAACAGCGAGGCAAUGUGGCUGUGGCUAGAUUGUC,0
14,GGCAGAGCUCAACACAGCAUGGCAAAGUGGAUGUGACUAGACUGCC,0.11
15,GGCAGAGCUCAACAAAGCUUGGCAAAGUGGCUGUGGCUAUUCCGCC,0.04
16,GGCAGAGCUCAACACAGCGCCGCUAAGUGGCUGUGGCUCGACUGCC,0
17,GGCAUAGCUCAACACAGCGUGGCAAAGUGGGUGGAGCUAGACUUCC,0.02
18,GGCAGAGCUCAACACAGCGUGGCAAAGCGGCUGUCUCUAGACUGCC,0.01
